This assay concerns the target T1, CD25 (Homo sapiens, UniProt P01589).
T1 sequence (P01589 22-272): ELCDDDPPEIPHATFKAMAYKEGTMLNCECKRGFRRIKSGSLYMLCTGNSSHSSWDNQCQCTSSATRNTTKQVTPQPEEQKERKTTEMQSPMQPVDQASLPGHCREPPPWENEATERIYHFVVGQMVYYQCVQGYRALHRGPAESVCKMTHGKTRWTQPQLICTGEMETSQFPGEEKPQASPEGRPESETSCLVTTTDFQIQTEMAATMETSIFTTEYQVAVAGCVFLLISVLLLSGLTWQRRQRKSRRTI
Description: Binding of human IgG1 format antibodies to CD25 by Octet. Particulars: read-out: Biosensor Measured CD25 Affinity. From the text: Thirty antibodies were selected for additional testing as full-length immunoglobulins. The heavy and light chain sequences were cloned into human immunoglobulin G (IgG1) format and expressed and purified.

B1: YU389-B11: anti-CD25 scFv clone, SEQ ID NO: 734 (protein, listed as Mus musculus)
scFv: PGSSVKVSCKASGGTFSSYAISWVRQAPGQGLEWMGGIIPIFGTANYAQKFQGRVTITADESTSTAYMELSSLRSEDTAVYYCAREMYYYYGMDVWGQGTTVTVSSCAREMYYYYGMDVW[letters of about 100 residues not shown]FGQGTKLEIKCQQSYSTPPTF
Regarding B1, the Kd worked out at 142 nM.
